The values below come from the supplement of paper PMC10127200.

Common to all, as to test: Euclidean distance of Cell Painting phenotypic profile (signed KS, 77 features) to DMSO centroid (dimensionless distance); higher = stronger phenotypic change vs DMSO (phenoactivity)
Details in all cases: 48 h; 5 or 10 uM (library dependent)

One assay deals with 786-O. Put shortly:
(§1)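 Harmony extracted 77 features from 20X confocal images (9 fields/well) of stained cells, scoring each as a signed Kolmogorov-Smirnov statistic against same-plate vehicle wells. The cells, five cancer lines and a healthy fibroblast line, had received library compounds for 48 h at 10 or 5 uM depending on library, with 0.1% DMSO final. Phenoactivity is the Euclidean distance from each plate-position-corrected, correlation-weighted, top-dose replicate-averaged profile to the median vehicle profile.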

A further assay deals with A549. Put shortly:
as §1

A further assay concerns DU145. The method, boiled down: as §1
The next assay concerns FB. The method, boiled down: as §1
The next assay relates to HEPG2. Put shortly:
as §1

Another assay deals with OVCAR4. The method, boiled down: as §1

Most of the highest values are listed elsewhere, so they are rarer here than in the full data.

In the case of `Cc1ccc(C(=O)NCCCCCC(=O)Nc2ccccc2N)cc1`, the Euclidean distance was 1.71 in the assay with 786-O; 2.11 in the assay with A549; 2.07 in the assay on DU145; 2.99 with FB; 2.54 with HEPG2; 2.04 with OVCAR4.
Turning to `CCOc1cc(NC(C)=O)ccc1C(=O)OC` [Ethopabate], the Euclidean distance in the assay on 786-O was 1.04; with A549 it was 1.63; with DU145, 1.66; in the assay on FB, 1.46; in the assay on HEPG2 it was 0.781; in the assay with OVCAR4, 1.71.
For `Cc1ccccc1-n1c(Cn2nc(-c3cccc(O)c3)c3c(N)ncnc32)nc2cccc(C)c2c1=O`, the Euclidean distance with 786-O came to 0.964; in the assay on A549 it was 0.952; in the assay with DU145, 0.96; with FB, 1.61; with HEPG2, 1.17; in the assay on OVCAR4, 2.15.
On to `CCC(C)C(C(=O)OCC[N+](C)(CC)CC)c1ccccc1` (stereo not given) [Valethamate Bromide], for which the Euclidean distance in the assay on 786-O turned out to be 1.13; in the assay with A549, 0.876; in the assay on DU145 it was 0.854; in the assay with FB, 1.06; in the assay with HEPG2, 0.932; in the assay with OVCAR4, 2.44.
As for `CN1C2CCC1CC(OC(=O)C(O)c1ccccc1)C2` (stereo not given) [Homatropine Bromide], the Euclidean distance with 786-O amounted to 1.09; in the assay on A549, 1.04; in the assay on DU145, 0.903; with FB it was 0.778; in the assay on HEPG2, 0.624; in the assay with OVCAR4, 1.34.
